# According to patent US20090155164A1 (Amgen, published 2009):
# Residue numbers refer to the chain shown, from its start.
# B1: anti-c-fms hybridoma antibody 1.39 (antibody, IgG1, V domains shown)
# VH: [about 100 residues cut from this listing]EGPYSDYGYYYYGMDVWGQGTTVTVSS
# VL: DIQMTQSPSSLSASVGDRVTITCQASQDISNYLNWYQQKPGKAPKVLIYDASNLETGVPSRFSGSGSGTDFTFTISSLQPEDIATYYCQQYDNLLTFGGGTKVEIK
# notes: Hybridoma IgG1 (cohort 1); also called 1.39.3; 1.39.2
# B2: anti-c-fms hybridoma antibody 2.103 (antibody, IgG2, V domains shown)
# VH: [about 100 residues cut from this listing]EYYHILTGSFYYSYYGMDVWGQGTTVTVSS
# VL: B1 VL with K39R, V46L
# notes: Hybridoma IgG2 (cohort 2); also called 2.103.1; 2.103.3
# B3: anti-c-fms hybridoma antibody 1.26 (antibody, IgG1, V domains shown)
# VH: not shown
# VL: B1 VL with Q38H, V46L
# notes: Hybridoma IgG1 (cohort 1); also called 1.26.1
# B4: anti-c-fms hybridoma antibody 1.27 (antibody, IgG1, V domains shown)
# VH: not shown
# VL: B1 VL with V46L
# notes: Hybridoma IgG1 (cohort 1); also called 1.27.3; 1.27.2
# B5: anti-c-fms hybridoma antibody 1.144 (antibody, IgG1, V domains shown)
# VH: not shown
# VL: B1 VL with Q38H, V46L
# notes: Hybridoma IgG1 (cohort 1); also called 1.144.1
# B6: anti-c-fms hybridoma antibody 1.34 (antibody, IgG1, V domains shown)
# VH: not shown
# VL: B1 VL with V46L
# notes: Hybridoma IgG1 (cohort 1)
# Molecular target: T1, human c-fms, full length, on cells (human, UniProt P07333 20-972)
# Assay: cell-based or functional assay
Binder,AML-5 bioassay IC50,Human CD14+ monocytes bioassay IC50
B1,0.027 nM,0.067 nM
B2,0.053 nM,0.133 nM
B3,0.027 nM,0.013 nM
B4,0.073 nM,0.2 nM

# Molecular target: T2, cynomolgus monkey c-fms on primary bone marrow cells (cynomolgus monkey)
# Assay: cell-based or functional assay
row,Binder,Cynomolgus bone marrow bioassay IC50
1,B1,0.067 nM
2,B2,0.027 nM
3,B3,0.033 nM
4,B4,0.933 nM

# Molecular target: T1, human c-fms, full length, on cells
# T1 sequence (P07333 20-972): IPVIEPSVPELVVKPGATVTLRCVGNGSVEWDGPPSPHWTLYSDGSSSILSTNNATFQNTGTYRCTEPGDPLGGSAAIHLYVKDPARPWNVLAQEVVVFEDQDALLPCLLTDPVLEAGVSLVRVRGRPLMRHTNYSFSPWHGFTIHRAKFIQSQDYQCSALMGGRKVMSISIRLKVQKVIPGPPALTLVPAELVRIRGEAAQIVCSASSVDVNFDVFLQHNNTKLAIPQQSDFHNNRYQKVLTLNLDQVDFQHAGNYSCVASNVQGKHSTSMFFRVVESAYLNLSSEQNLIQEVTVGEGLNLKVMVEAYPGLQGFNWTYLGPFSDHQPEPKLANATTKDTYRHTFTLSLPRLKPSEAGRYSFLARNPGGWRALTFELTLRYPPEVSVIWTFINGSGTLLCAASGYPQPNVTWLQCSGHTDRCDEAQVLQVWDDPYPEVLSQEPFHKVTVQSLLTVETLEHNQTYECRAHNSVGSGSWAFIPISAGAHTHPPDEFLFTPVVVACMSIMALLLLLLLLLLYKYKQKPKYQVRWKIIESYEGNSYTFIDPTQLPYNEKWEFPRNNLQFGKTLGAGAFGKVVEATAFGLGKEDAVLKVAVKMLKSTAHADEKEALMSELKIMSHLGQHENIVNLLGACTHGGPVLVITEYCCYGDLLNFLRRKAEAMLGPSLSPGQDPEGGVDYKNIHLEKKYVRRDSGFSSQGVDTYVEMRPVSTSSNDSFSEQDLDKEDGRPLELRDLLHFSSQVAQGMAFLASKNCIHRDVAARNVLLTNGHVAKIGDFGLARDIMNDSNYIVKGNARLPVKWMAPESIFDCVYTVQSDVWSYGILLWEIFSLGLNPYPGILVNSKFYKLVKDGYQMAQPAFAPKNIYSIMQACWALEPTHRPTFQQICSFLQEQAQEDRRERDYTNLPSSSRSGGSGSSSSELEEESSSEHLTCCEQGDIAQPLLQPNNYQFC
# Assay: cell-based or functional assay
# Remark: another data set of the same source
Binder,AML-5 bioassay IC50,Human CD14+ monocytes bioassay IC50
B1,4 ng/mL,10 ng/mL
B2,8 ng/mL,20 ng/mL
B3,4 ng/mL,2 ng/mL
B4,11 ng/mL,30 ng/mL

# Molecular target: T2, cynomolgus monkey c-fms on primary bone …
# Assay: cell-based or functional assay
# Remark: another data set of the same source
row,Binder,Cynomolgus bone marrow bioassay IC50
1,B1,30 ng/mL
2,B2,4 ng/mL
3,B3,5 ng/mL
4,B4,140 ng/mL

# Molecular target: T3, monomeric human c-fms (residues 1-512)-pHis (human, UniProt P07333 fragment)
# T3 construct: Construct stated as residues 1-512; signal stated as amino acids 1-19 and left out; also called human c-fms (1-512).pHIS; monomeric c-fms
# Assay: Biacore, low resolution; hybridoma mAb captured on anti-human IgG, monomeric c-fms-pHis analyte at 125 nM
# Description: Anti-human IgG was immobilized on all four flow cells of a sensor chip using amine coupling. Crude hybridoma samples were diluted into halves and captured on the anti-IgG surface. […] Sequence lineage analyses were also performed on the 29 hybridomas (see, FIG. 2).
Binder,Kd,koff,kon
B1,5.4 nM,0.000608 s⁻¹,113000 M⁻¹ s⁻¹
B2,4.8 nM,0.000364 s⁻¹,75100 M⁻¹ s⁻¹
B3,11 nM,0.00263 s⁻¹,239000 M⁻¹ s⁻¹
B4,33 nM,0.01 s⁻¹,299000 M⁻¹ s⁻¹
B5,11 nM,0.0025 s⁻¹,230000 M⁻¹ s⁻¹
B6,36 nM,0.0131 s⁻¹,365000 M⁻¹ s⁻¹
